Publication PMC4336329 (PLoS ONE, 2015)
In all, about 310,000 compounds went through this assay and about 14,000 (4.5%) showed an effect of 50% or more. Effects have a minus sign here. This is one part of the list.

The compounds below were run against human ether-à-go-go-related gene (hERG) potassium channel (human, UniProt Q12809) (assay: primary screen, population patch clamp on CHO cells stably expressing hERG).
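Further: peak tail current of the secondary pulse compared with the same well before compound.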

Sequence of human ether-à-go-go-related gene (hERG) potassium channel (Q12809 whole entry, looked up): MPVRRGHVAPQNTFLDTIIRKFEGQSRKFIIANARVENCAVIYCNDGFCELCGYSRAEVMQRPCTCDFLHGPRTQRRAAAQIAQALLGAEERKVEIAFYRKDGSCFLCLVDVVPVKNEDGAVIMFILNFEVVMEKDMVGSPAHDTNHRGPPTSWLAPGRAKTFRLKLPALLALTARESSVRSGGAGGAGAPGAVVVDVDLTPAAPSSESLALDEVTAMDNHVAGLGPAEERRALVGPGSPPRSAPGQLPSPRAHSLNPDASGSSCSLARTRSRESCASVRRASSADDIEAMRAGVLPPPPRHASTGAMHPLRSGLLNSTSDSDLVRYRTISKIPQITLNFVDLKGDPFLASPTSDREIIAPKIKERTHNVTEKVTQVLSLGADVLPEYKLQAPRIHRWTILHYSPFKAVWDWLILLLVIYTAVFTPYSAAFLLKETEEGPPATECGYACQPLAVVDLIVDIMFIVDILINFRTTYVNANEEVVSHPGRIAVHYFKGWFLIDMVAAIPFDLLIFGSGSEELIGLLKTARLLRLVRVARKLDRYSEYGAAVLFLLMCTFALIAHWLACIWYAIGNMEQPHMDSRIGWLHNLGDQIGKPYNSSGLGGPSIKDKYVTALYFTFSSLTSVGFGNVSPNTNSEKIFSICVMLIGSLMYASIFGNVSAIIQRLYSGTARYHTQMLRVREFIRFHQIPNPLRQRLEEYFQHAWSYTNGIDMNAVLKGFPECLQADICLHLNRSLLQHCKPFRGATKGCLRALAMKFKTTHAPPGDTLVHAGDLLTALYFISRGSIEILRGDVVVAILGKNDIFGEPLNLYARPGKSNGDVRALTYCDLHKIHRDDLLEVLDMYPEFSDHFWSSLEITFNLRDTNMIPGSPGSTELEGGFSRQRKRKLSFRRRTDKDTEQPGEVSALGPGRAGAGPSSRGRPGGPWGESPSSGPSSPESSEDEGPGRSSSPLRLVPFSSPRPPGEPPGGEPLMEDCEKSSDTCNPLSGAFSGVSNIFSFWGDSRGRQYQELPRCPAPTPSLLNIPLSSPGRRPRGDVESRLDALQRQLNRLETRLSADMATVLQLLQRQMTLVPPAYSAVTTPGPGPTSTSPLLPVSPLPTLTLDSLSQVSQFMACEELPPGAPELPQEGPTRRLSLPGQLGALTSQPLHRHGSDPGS

Row | Structure (SMILES) | hERG current change (%, negative = inhibition) at 10uM [%]
1 | Cn1c2ccccc2c2nn(-c3ccccc3)c(=O)cc21 | -1.53
2 | O=C(COC(=O)Cn1cnc2ccccc21)NCCc1ccc(Cl)cc1 | -6.55
3 | CN1CCN(C(=O)c2cnn(-c3ccccc3)c2NC(=O)c2ccccc2)CC1 | -17.8
4 | Cc1cc(C(=O)NC2CCCc3c2cnn3-c2ccc(C)c(C)c2)n(C)n1 (centres unmarked) | -8.37
5 | Cc1ccc(S(=O)(=O)NCCC(=O)Nc2nccs2)cc1 | 23.3
6 | COC(=O)c1ccc(COc2ccccc2/C=C(\C#N)C(=O)Nc2ccc(C)cc2)cc1 | 1.57
7 | COc1ccc(CCNC(=O)COC(=O)c2ccc(N3CCCC3=O)cc2)cc1OC | 25.6
8 | Cc1ccc2nc(CNC(=O)C3CCC(=O)N(Cc4ccccc4F)C3)cn2c1 (centres unmarked) | -2.21
9 | CCn1cc(C(=O)N2CCCCC2)c2ccccc21 | 0.331
10 | NNc1nc(-c2ccccc2)nc2sc3c(c12)CCCC3 | 13.3
11 | Cc1ccc(C(C)C)c(OCC(=O)NN=C2CCCC2)c1 | -0.556
12 | Cc1ccc(N(C)C(=O)CCNC(=O)Cn2cnc3ccccc3c2=O)cc1C | -8.84
13 | CN(C)c1nc(N)c([N+](=O)[O-])c(NCC2CCCO2)n1 (centres unmarked) | 7.07
14 | O=S(=O)(c1cccc(C(F)(F)F)c1)N1CCC(c2nc3ccccc3[nH]2)CC1 | 0.277
15 | NC(=O)c1ccc(NC(=O)COC(=O)CCN=C2NS(=O)(=O)c3ccccc32)cc1 | 0.194
16 | CC1CN(C(=S)Nc2ccc(S(N)(=O)=O)cc2)CC(C)O1 (centres unmarked) | 6.63
17 | COc1ccc(CCNC(=O)CSc2nc(C)nc3c2c(=O)n(C)c(=O)n3C)cc1OC | 6.28
18 | Cc1cc(C)n2ncc(C(=O)O)c2n1 | 9.1
19 | CCOc1ccc(C(=O)NC2CCN(S(C)(=O)=O)CC2)cc1 | 8.09
20 | CCOC(=O)c1sc(SCc2ccccc2)c2c1CC(C)(C)CC2=O | -3.74
21 | Cc1nc2c(ncn2-c2ccccc2)c(=O)n1NC(=O)CN1CCN(C)CC1 | 8.15
22 | O=C1c2ccccc2C(=O)N1Cc1nc2ccccc2c(=O)n1CCN1CCOCC1 | 2.37

Row | Structure (SMILES) | hERG current change (%, negative = inhibition) at 10uM [%]
23 | CSCCC(NC(N)=O)C(=O)NCc1ccccc1Cl (centres unmarked) | 0.00838
24 | O=[N+]([O-])c1ccc(OCC(O)CNCCNc2nccc(C(F)(F)F)n2)cc1 (centres unmarked) | -79.2
25 | Cc1cc(Cl)ccc1NC(=O)Nc1c(C)n(-c2ccccc2)c(=O)n1C | -5.96
26 | O=C(NC1CCC(O)CC1)c1ccc(S(=O)(=O)NCc2ccco2)cc1 (centres unmarked) | 25
27 | CC(C)c1ccc(NC(=O)C(c2ccccc2)N(C)C(=O)c2cnccn2)cc1 (centres unmarked) | -23.9
28 | COc1ccc(CCc2nnc(CCC(=O)N(C)Cc3ccnc4ccccc34)o2)cc1 | -37.7
29 | O=C(CN1C(=O)NC2(CCCCCCC2)C1=O)NC(=O)NCc1ccco1 | 1.73
30 | O=C(Cc1ccc(NC2=NC3CS(=O)(=O)CC3S2)cc1)NCc1ccccc1 (centres unmarked) | 14
31 | CCOc1ccc(CC(=O)Nc2sc(Cc3ccccc3)cc2C(N)=O)cc1OCC | 11.8
32 | COC(=O)C1CCN(C(=O)C(C)Oc2ccc(Cl)cc2Cl)CC1 (centres unmarked) | 12.3
33 | COc1ccc(S(=O)(=O)C(C#N)c2nc3ccccc3nc2N2CCCCC2)cc1 (centres unmarked) | -5.93
34 | CC(=O)/C(=C/N(C)C)C(=O)Nc1ccc(Cl)cc1Cl | 9.14
35 | COc1cccc(/C=N/NC(=S)Nc2cccnc2)c1 | -0.981
36 | CCOC(=O)c1c(C)[nH]c(C)c1C(=O)CSc1nc(N)cc(N)n1 | 18.6
37 | Cc1cccc(N=C2CSC(=O)N2)c1 | 4.69
38 | COc1ccc(OCCCn2cc(/C=C3/C(=N)N4C=C(C)SC4=NC3=O)c3ccccc32)cc1 | 11.1
39 | COc1ccccc1C(=O)OCC(=O)NC(=O)NCc1ccccc1 | 2.26
40 | Cn1c(SCc2nc3ccccc3[nH]2)nnc1-c1cnccn1 | 10.2
41 | CC1=NOC(=O)/C1=C\c1ccc2c(c1)OCO2 | 12.6
42 | Cc1cccn2c(=O)c3cc(C(=O)N4CCOCC4)n(C)c3nc12 | -32.1
43 | CC1CN(C(c2ccco2)c2sc3ncnn3c2O)CC(C)O1 (centres unmarked) | -11.4
44 | CCOc1ccc(S(=O)(=O)NCc2ccco2)cc1 | 1.61
